Consider 20 compounds from patent US10266544B2, “Aryl substituted aminomethyl spectinomycin analogs as antibacterial agents” (ST. JUDE CHILDREN'S RESEARCH HOSPITAL, INC., priority 2013, dated 2019).

What is called IC50 is the point on the concentration scale where inhibition reaches its midpoint. Lower therefore signals greater potency in that assay.

“And” between values parts separate entries of the source, which are not always exact repeats. Identical values can stand only once. Counter-ions that a name gives are not always drawn.

For the test, the target named is purified Mycobacterium smegmatis 70S bacterial ribosomes (Mycolicibacterium smegmatis, UniProt A0QSG6). The experiment in a line: biochemical. Here is the method: Aryl substituted aminomethyl spectinomycin analogs were synthesized as described above. Ribosomal inhibition (IC50) was determined in the ribosomal inhibition assay as described above and the data are shown in Table 2. The compound number corresponds to the compound numbers used in Table 1.
3′-Methylene aryl substituted aminomethyl spectinomycin analogs were evaluated for potency as ribosomal inhibitors using purified mycobacterial ribosomes, as described previously (Salian, et al. Antimicrob Agents Chemother. 2011 56(12), 6104-6108). […] Without wishing to be bound by a particular theory, the meta position appeared to be less preferred for substitution than para position. Adding a trifluoromethoxy (10) decreased binding by 10-fold. […] Without wishing to be bound by a particular theory, introduction of a nitrogen to the ortho (16) and meta (7) position of non-substituted aryl analog 1 was favorable, decreasing IC50's to 0.4 μg/mL in each case.

Chain of purified Mycobacterium smegmatis 70S bacterial ribosomes (A0QSG6 whole entry): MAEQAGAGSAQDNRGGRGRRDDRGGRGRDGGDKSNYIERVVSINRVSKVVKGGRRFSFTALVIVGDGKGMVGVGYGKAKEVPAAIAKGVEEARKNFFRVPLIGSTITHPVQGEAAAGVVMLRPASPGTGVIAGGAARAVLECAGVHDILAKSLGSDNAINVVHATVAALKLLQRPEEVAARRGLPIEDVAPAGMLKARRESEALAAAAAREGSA

For the setting “IC50”, `CN[C@@H]1[C@H](O)[C@H](NC)[C@H]2O[C@]3(O)[C@H](O[C@@H]2[C@H]1O)O[C@H](C)C[C@@]3(O)CNCc1cccs1` [compound 17, 3′-(R)-3′-(2-thiophenylmethylaminomethyl)dihydrospectinomycin Trihydrochloride] showed an IC50 of 849 nM. In turn, `CN[C@@H]1[C@H](O)[C@H](NC)[C@H]2O[C@]3(O)[C@H](O[C@@H]2[C@H]1O)O[C@H](C)C[C@@]3(O)CNCCc1ccc(C)cc1` [compound 32, 3′-(R)-3′-[(4-Methyl)]Phenethylaminomethyl)]Dihydrospectinomycin Trihydrochloride] showed a concentration for half-maximal inhibition (IC50) (IC50 (Sm)) of 1020 nM. Regarding `CN[C@@H]1[C@H](O)[C@H](NC)[C@H]2O[C@]3(O)[C@H](O[C@@H]2[C@H]1O)O[C@H](C)C[C@@]3(O)CNCCc1ccc(C)c(C)c1` [compound 55, 3′-(R)-3′-[(3,4-dimethyl)phenethylaminomethyl]dihydrospectinomycin Trihydrochloride], the 50% inhibitory concentration (IC50) by setting is: (IC50) 4360 nM; (IC50 (Sm)) 4360 nM. `CN[C@@H]1[C@H](O)[C@H](NC)[C@H]2O[C@]3(O)[C@H](O[C@@H]2[C@H]1O)O[C@H](C)C[C@@]3(O)CNCCc1ccccc1` [compound 6, 3′-(R)-3′-(phenethylaminomethyl)dihydrospectinomycin Trihydrochloride]: where the note is “IC50”, the 50% inhibitory concentration (IC50) was 492 nM.

Turning to `CN[C@@H]1[C@H](O)[C@H](NC)[C@H]2O[C@]3(O)[C@H](O[C@@H]2[C@H]1O)O[C@H](C)C[C@@]3(O)CNCCN1CCOCC1` [compound 51, 3′-(R)-3′-[(2-morpholinoethyl)aminomethyl]dihydrospectinomycin tetrahydrochloride], the concentration for half-maximal inhibition (IC50) is 797 nM (IC50) and 797 nM (IC50 (Sm)). In the case of `CN[C@@H]1[C@H](O)[C@H](NC)[C@H]2O[C@]3(O)[C@H](O[C@@H]2[C@H]1O)O[C@H](C)C[C@@]3(O)CNCCCc1ccccc1` [compound 13, 3′-(R)-3′-(phenylpropylaminomethyl)dihydrospectinomycin Trihydrochloride], 519 nM corresponded to half-maximal inhibition (IC50) (IC50). `CN[C@@H]1[C@H](O)[C@H](NC)[C@H]2O[C@]3(O)[C@H](O[C@@H]2[C@H]1O)O[C@H](C)C[C@@]3(O)CNCc1cccc(C)n1` [compound 22, 3′-(A)-3′-[(6-Methyl)-2-pyridinylmethylamino)dihydrospectinomycin Tetrahydrobromide] gave an IC50 (IC50) of 918 nM. As to `CN[C@@H]1[C@H](O)[C@H](NC)[C@H]2O[C@]3(O)[C@H](O[C@@H]2[C@H]1O)O[C@H](C)C[C@]3(O)CNCc1ccc(F)cc1` [compound 28, 3′-(S)-3′-[(4-fluoro)benzylaminomethyl)]dihydrospectinomycin Trihydrochloride], the half-maximal inhibitory concentration (IC50) (IC50) was 35200 nM.

For the setting “IC50”, `CN[C@@H]1[C@H](O)[C@H](NC)[C@H]2O[C@]3(O)[C@H](O[C@@H]2[C@H]1O)O[C@H](C)C[C@@]3(O)CNCc1ccc(OC(F)(F)F)cc1` [compound 11, 3′-(R)-3′-[(4-trifluoromethoxyl)benzylaminomethyl)]dihydrospectinomycin Trihydrochloride] gave an IC50 of 2140 nM.

As to `CN[C@@H]1[C@H](O)[C@H](NC)[C@H]2O[C@]3(O)[C@H](O[C@@H]2[C@H]1O)O[C@H](C)C[C@@]3(O)CNCc1cccnc1` [compound 7, 3′-(R)-3′-(3-pyridinylmethylaminomethyl)dihydrospectinomycin Tetrahydrobromide], the half-inhibitory concentration (IC50) (IC50) was 880 nM and 902 nM. The compound `CCOc1ccc(CNC[C@]2(O)C[C@@H](C)O[C@H]3O[C@@H]4[C@@H](O)[C@H](NC)[C@H](O)[C@H](NC)[C@H]4O[C@]32O)cc1` [compound 4, 3′-(R)-3′-[(4-ethoxyl)benzylaminomethyl)]dihydrospectinomycin Trihydrochloride] gave an IC50 (IC50) of 1450 nM. For `CN[C@@H]1[C@H](O)[C@H](NC)[C@H]2O[C@]3(O)[C@H](O[C@@H]2[C@H]1O)O[C@H](C)C[C@@]3(O)CNCc1cccc(F)c1` [compound 15, 3′-(R)-3′-[(3-fluoro)benzylaminomethyl)]dihydrospectinomycin Trihydrochloride], the “change of ribosomal inhibitory potency on fluorination of the aryl ring” value (from here on “change of ribosomal inhibitory potency”) is “slight loss of potency”. The midpoint of inhibition (IC50), the IC50, lay at 2210 nM. `CN[C@@H]1[C@H](O)[C@H](NC)[C@H]2O[C@]3(O)[C@H](O[C@@H]2[C@H]1O)O[C@H](C)C[C@@]3(O)CNCc1ccccc1OC(F)(F)F` [compound 10, Trihydrochloride] registered a decrease in binding of 10 fold. Further, inhibition (IC50) was half-maximal at 17800 nM (IC50). Regarding `CN[C@@H]1[C@H](O)[C@H](NC)[C@H]2O[C@]3(O)[C@H](O[C@@H]2[C@H]1O)O[C@H](C)C[C@@]3(O)CNCc1ccco1` [compound 8, 3′-(R)-3′-(2-furanylmethylaminomethyl)dihydrospectinomycin Trihydrochloride], half-maximal inhibition (IC50) (IC50) was put at 902 nM. For the setting “IC50”, `CN[C@@H]1[C@H](O)[C@H](NC)[C@H]2O[C@]3(O)[C@H](O[C@@H]2[C@H]1O)O[C@H](C)C[C@@]3(O)CNCc1ccc(F)c(F)c1` [compound 12, 3′-(R)-3′-[(3,4-difluoro)benzylaminomethyl)]dihydrospectinomycin Trihydrochloride] showed an IC50 of 4270 nM. In the case of `CN[C@@H]1[C@H](O)[C@H](NC)[C@H]2O[C@]3(O)[C@H](O[C@@H]2[C@H]1O)O[C@H](C)C[C@]3(O)CNCc1ccc(OC(F)(F)F)cc1` (stereo in doubt) [compound 26, 3′-(S)-3′-[(4-trifluoromethoxyl)benzylaminomethyl)]dihydrospectinomycin Trihydrochloride], the IC50 (IC50) is 37500 nM.

Regarding `CN[C@@H]1[C@H](O)[C@H](NC)[C@H]2O[C@]3(O)[C@H](O[C@@H]2[C@H]1O)O[C@H](C)C[C@@]3(O)CNCc1ccc(F)cc1` [compound 2, 3′-(R)-3′-[(4-fluoro)benzylaminomethyl)]dihydrospectinomycin Trihydrochloride], the “change of ribosomal inhibitory potency” value is “slight loss of potency”. Moreover, for the setting “IC50”, inhibition was half-maximal at 1570 nM (IC50). Take `CN[C@@H]1[C@H](O)[C@H](NC)[C@H]2O[C@]3(O)[C@H](O[C@@H]2[C@H]1O)O[C@H](C)C[C@@]3(O)CNCc1ccccc1F` [compound 14, 3′-(R)-3′-[(2-fluoro)benzylaminomethyl)]dihydrospectinomycin Trihydrochloride]: the “change of ribosomal inhibitory potency” value was “slight loss of potency”. For the setting “IC50”, this compound gave a 50% inhibitory concentration (IC50) of 1510 nM. The compound `CN[C@@H]1[C@H](O)[C@H](NC)[C@H]2O[C@]3(O)[C@H](O[C@@H]2[C@H]1O)O[C@H](C)C[C@@]3(O)CNCc1ccc(Cl)cc1` [compound 18, 3′-(R)-3′-(4-Chlorobenzylaminomethyl)dihydrospectinomycin Trihydrobromide] showed an IC50 (IC50) of 697 nM. On to `CN[C@@H]1[C@H](O)[C@H](NC)[C@H]2O[C@]3(O)[C@H](O[C@@H]2[C@H]1O)O[C@H](C)C[C@@]3(O)CNCc1ccc(C(F)(F)F)cc1` [compound 5, 3′-(R)-3′-[(4-trifluoromethyl)benzylaminomethyl)]dihydrospectinomycin Trihydrochloride], for which, where the note is “IC50”, the IC50 is 1670 nM.
